From the supplement of paper PMC8792480
Counter-ions that a name gives are not always drawn. Some of the results follow. Repeats are few or missing, and single values can be far off.

Tested on: NCI-H460
Assay: cell-surface PD-L1 MFI ratio relative to cisplatin alone (isotype-subtracted); higher = higher PD-L1 surface expression
Conditions: inducer: cisplatin 4 uM; 10 µM; 24 h
Method: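 A549 and H460 NSCLC cells were treated with each library drug at 10 uM, then with radiation (8 Gy) or cisplatin (4 uM), and incubated for 24 h. Cell-surface PD-L1 was measured by flow cytometry as an MFI ratio: (MFI drug+inducer - MFI isotype)/(MFI inducer alone - MFI isotype). Hits were defined as ratio < 0.75.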

Row | Structure (SMILES) | cell-surface PD-L1 MFI ratio
1 | O=C(/C=C/c1cncc(F)c1)c1c(-c2ccccc2)c2cc(Cl)ccc2[nH]c1=O | inactive: 0.848
2 | Cc1ccc(C(=O)N(CCCN)[C@@H](c2nc3cc(Cl)ccc3c(=O)n2Cc2ccccc2)C(C)C)cc1 | inactive: 1.83
3 | Cc1cnc(NC(=O)Nc2cc(Br)c(C)cc2OC[C@@H]2CNCCO2)cn1 | inactive: 0.816
4 | CC(ONC(=O)c1cc(C(F)(F)F)cc(C(F)(F)F)c1)C(=O)Nc1ccc(Cl)cc1 (centres undefined) | inactive: 1.06
5 | c1ccc2c(-c3cnn4cc(-c5ccc(N6CCNCC6)cc5)cnc34)ccnc2c1 | inactive: 2.12
6 | CNC(=O)c1ccccc1Sc1ccc2c(/C=C/c3ccccn3)n[nH]c2c1 [Axitinib] | inactive: 2.14
7 | C=CC(=O)N1CCC([C@@H]2CCNc3c(C(N)=O)c(-c4ccc(Oc5ccccc5)cc4)nn32)CC1 [Zanubrutinib] | inactive: 1.3
8 | CC[C@H](NC(=O)[C@H](C)NC)C(=O)N1C[C@@H](O)C[C@H]1Cc1c(-c2[nH]c3cc(F)ccc3c2C[C@@H]2C[C@H](O)CN2C(=O)[C@H](CC)NC(=O)[C@H](C)NC)[nH]c2cc(F)ccc12 [Birinapant] | inactive: 1.15
9 | Cc1[nH]c2ccccc2c1CCNCc1ccc(/C=C/C(=O)NO)cc1 [Panobinostat] | inactive: 0.872
10 | Nc1ccccc1NC(=O)c1ccc(CNC(=O)OCc2cccnc2)cc1 [Entinostat (MS-275)] | inactive: 0.952
11 | Cc1cc(O)c(-c2ccc([C@@H](C)CN)cc2)c2c1[nH]c(=O)c1sccc12 [OTS514 hydrochloride] | inactive: 1.02
12 | Cc1cc(Nc2cc(N)ncn2)c(=O)n2c1C(=O)NC21CCCCC1 [Tomivosertib (eFT-508)] | inactive: 1.11
13 | CCOc1cc2ncc(C#N)c(Nc3ccc(OCc4ccccn4)c(Cl)c3)c2cc1NC(=O)/C=C/CN(C)C [Neratinib (HKI-272)] | inactive: 1.11
14 | OCC1OC(O)CC(O)C1O [2-Deoxy-D-glucose] | inactive: 1.18
